# From PubChem BioAssay (Tox21)
# Where “and” joins values, the source holds several entries; their conditions need not be identical. Identical values can stand only once. Inconclusive results, whose numbers are uncertain, are shown with a selection of clear calls. For some assays here: Potencies beside an inconclusive call are fits to weak or partial responses and may not hold up. Some structures have more than one record in an assay (separate samples or runs), and their calls can disagree. Calls of active or inactive are those of the source. Unless noted, calls follow the shape of the dose curve; as a rule, active = well fitted curve in the direction sought with a large enough effect in the repeat runs; inconclusive = weak or mixed curves; inactive = no such curve, though single readings can be large; an effect the other way counts as inactive or inconclusive.
# Legend:
# [1] = qHTS assay to identify small molecule agonists of the endoplasmic reticulum stress response signaling pathway - cell viability counter screen (AID 1159517; calls by dose curve; also: nearly all actives have a fitted effect of over 50% in size)
# Method in brief: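 HeLa cells carrying an ESRE-driven beta-lactamase reporter receive compound for 5 hr at 37 C. Cell viability is then gauged with CellTiter-Glo by luminescence, 30 min at room temperature.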
# [2] = qHTS assay to identify small molecule antagonists of the retinoid-related orphan receptor gamma (ROR-gamma) signaling pathway - cell viability counter screen (AID 1159520); also: nearly all actives have a fitted effect of over 50% in size
# Method in brief: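 Cytotoxicity was read from cellular ATP (CellTiter-Glo luminescence) after 16 hr at 37 C with 1 uM doxycycline induction. The inducer was added 2 hr after compound transfer to Tet-on ROR gamma CHO cells.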
# [3] = qHTS assay to identify small molecule agonists of the AP-1 signaling pathway - cell viability counter screen (AID 1159525; calls by dose curve; also: nearly all actives have a fitted effect of over 55% in size)
# Method in brief: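 Luminescent ATP readout (Cell Titer Glo, 30 min RT), normalised to DMSO and tetra n-octyl ammonium bromide controls. Cells were ME-180 AP-1-bla in 0.5% dialyzed FBS Opti-MEM, with a 5 h, 37 °C compound exposure.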
# [4] = qHTS assay to identify small molecule agonists of the AP-1 signaling pathway (AID 1159526; calls by dose curve; as to activation: % is scaled to controls: 0 for no effect and ±100 for the full control effect); settings: ME-180 (cervical carcinoma) AP-1-bla reporter, beta-lactamase FRET ratio, 5 h; activation: at 76.8 µM (top of the series) unless noted
# [5] = biological target: Retinoic acid receptor RXR-alpha (Homo sapiens) (UniProt P19793); test: qHTS assay to identify small molecule agonists of the RXR signaling pathway (AID 1159527; calls by dose curve; also: nearly all actives have a fitted effect of over 35% in size; as to activation: % is scaled to controls: 0 for no effect and ±100 for the full control effect); settings: HEK293T RXRa-UAS-bla, beta-lactamase ratio, 16 h; activation: at 76.8 µM (top of the series) unless noted
# Method in brief: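 16 hr incubation of compound-treated RXR-alpha-UAS-bla HEK 293T cells (2% charcoal-stripped FBS, 37 C) preceded a 2 hr room-temperature LiveBLAzer FRET substrate step and blue/green fluorescence measurement.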
# [6] = qHTS assay to identify small molecule antagonists of the retinoid acid receptor (RAR) signaling pathway - cell viability counter screen (AID 1159551); also: nearly all actives have a fitted effect of over 35% in size
# Method in brief: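 C3RL4 RARE-luciferase cells, 1,000/well, incubated overnight, then dosed with compound plus 1 uM retinol (final). After 6 hr at 37 C, viability read by CellTiter-Glo ATP luminescence following 30 min at room temperature.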
# [7] = qHTS assay to identify small molecule antagonists of the estrogen related receptor (ERR) signaling pathway from Tox21 library - cell viability counter screen (AID 1224834); also: nearly all actives have a fitted effect of over 30% in size
# Method in brief: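 ERR reporter cells, 2,000 per well, rested 6 h, then exposed to compound in DMSO for 17.5 hours at 37 C. Viability read as fluorescence after 30 min with CellTiter-Fluor.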
# [8] = biological target: Nuclear receptor ROR-gamma (Homo sapiens) (UniProt P51449); test: qHTS assay to identify small molecule antagonists of the retinoid-related orphan receptor gamma (ROR-gamma) signaling pathway (AID 1159521; also: nearly all actives have a fitted effect of over 50% in size)
# Method in brief: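 Decreased RORE-driven luciferase luminescence indicates antagonism. Tet-on RORγ CHO cells received compound, then 1 uM final doxycycline 2 h later; signal read after 16 h incubation.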
# [9] = qHTS assay to identify small molecule agonists of the RXR signaling pathway - cell viability counter screen (AID 1159529); also: nearly all actives have a fitted effect of over 50% in size
# Method in brief: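 In this parallel viability measure, GeneBLAzer RXR-alpha HEK 293T cells (2% charcoal-stripped FBS) were given a 5 hr preincubation, treated with compounds 16 hr at 37 C, and read by CellTiter-Glo luminescence.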
# [10] = qHTS assay to identify small molecule antagonists of the retinoic acid receptor (RAR) signaling pathway (AID 1159552; also: nearly all actives have a fitted effect of over 50% in size)
# Method in brief: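 C3RL4 RARE-luc cells, overnight plating; retinol 1 uM final added right after compound; 6 hr 37 C; luciferase read at 30 min RT.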
# [11] = qHTS assay to identify small molecule agonists of the retinoic acid receptor (RAR) signaling pathway (AID 1159553); settings: C3RL4 RARE luciferase reporter, agonist, 6 h; activation: at 73.3 µM (top of the series) unless noted
# Method in brief: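 C3RL4 RARE-luciferase cells were seeded at 1,000/well and grown overnight at 37 C, then exposed to compounds for 6 hr at 37 C, 5% CO2. Luciferase reagent was added and luminescence was read after 30 min at room temperature.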
# [12] = biological target: Luciferin 4-monooxygenase (Photinus pyralis) (UniProt P08659); test: qHTS assay to identify small molecule inhibitors of firefly luciferase (AID 1224835); also: nearly all actives have a fitted effect of over 25% in size
# Method in brief: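 Inhibition of purified Photinus luciferase is measured by luminescence. Substrate levels (D-luciferin, ATP) sit at their KM values. Each compound is tested in a concentration series.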
# [13] = qHTS assay to identify small molecule agonists of the constitutive androstane receptor (CAR) signaling pathway - cell viability counter screen (AID 1224836); also: nearly all actives have a fitted effect of over 45% in size
# Method in brief: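 Using CellTiter-Fluor, viability of HepG2 cells harbouring hCAR and CYP2B6-2.2kb was measured following 23 h incubation with a 15-concentration compound series plus PK11195 (0.75 uM final).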
# [14] = qHTS assay to identify small molecule antagonists of the constitutive androstane receptor (CAR) signaling pathway - cell viability counter screen (AID 1224837); also: nearly all actives have a fitted effect of over 45% in size
# Method in brief: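 HepG2 cells stably carrying hCAR and CYP2B6-2.2kb reporter, stimulated with 50 nM CITCO and compounds at 15 concentrations for 23 h at 37 C. Viability measured by CellTiter-Fluor fluorescence.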
# Potency is read from the fitted curve at half-maximal effect; tags tell the direction and shape of the fitted curve or compound fluorescence and quenching.
# UniProt P19793, sequence (P19793 whole entry, looked up): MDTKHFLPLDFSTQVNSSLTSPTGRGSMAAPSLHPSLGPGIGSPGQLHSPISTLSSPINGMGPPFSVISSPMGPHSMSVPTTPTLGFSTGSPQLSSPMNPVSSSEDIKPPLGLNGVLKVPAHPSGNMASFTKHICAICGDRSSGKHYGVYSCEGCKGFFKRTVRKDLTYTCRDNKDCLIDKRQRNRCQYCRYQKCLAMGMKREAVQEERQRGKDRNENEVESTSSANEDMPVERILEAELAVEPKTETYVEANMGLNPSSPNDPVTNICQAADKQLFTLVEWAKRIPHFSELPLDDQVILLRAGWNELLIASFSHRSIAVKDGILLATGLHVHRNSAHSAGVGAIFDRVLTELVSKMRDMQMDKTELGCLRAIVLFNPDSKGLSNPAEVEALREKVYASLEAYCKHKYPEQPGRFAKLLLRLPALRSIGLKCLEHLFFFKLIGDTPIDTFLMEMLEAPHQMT
# UniProt P08659, sequence (P08659 whole entry, looked up): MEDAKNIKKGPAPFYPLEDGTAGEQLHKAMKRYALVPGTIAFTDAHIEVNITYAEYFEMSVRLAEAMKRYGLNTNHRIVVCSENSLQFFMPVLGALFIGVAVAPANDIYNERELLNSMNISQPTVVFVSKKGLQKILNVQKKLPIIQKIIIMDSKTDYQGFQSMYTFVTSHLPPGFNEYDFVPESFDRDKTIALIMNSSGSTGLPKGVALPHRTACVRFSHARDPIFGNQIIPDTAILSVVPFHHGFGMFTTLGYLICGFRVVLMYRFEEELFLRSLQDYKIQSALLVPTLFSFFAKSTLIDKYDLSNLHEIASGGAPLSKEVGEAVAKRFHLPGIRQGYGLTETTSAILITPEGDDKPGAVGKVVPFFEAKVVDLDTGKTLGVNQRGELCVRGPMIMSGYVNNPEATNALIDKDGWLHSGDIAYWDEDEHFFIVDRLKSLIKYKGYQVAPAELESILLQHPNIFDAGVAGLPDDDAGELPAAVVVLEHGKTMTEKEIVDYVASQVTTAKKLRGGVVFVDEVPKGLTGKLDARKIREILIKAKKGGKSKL
smiles,measurement,setting,value
CC(C)CC(C)(c1ccc(O)cc1)c1ccc(O)cc1,Potency,[1],"inconclusive: 49.1 µM [cytotoxic, single point] and inconclusive: 61.7 µM [cytotoxic, single point]"
same,Potency,[2],"inconclusive: 68.7 µM [cytotoxic, single point] and inconclusive: 48.6 µM [cytotoxic, partial curve, poor fit]"
same,Potency,[3],"inconclusive: 54.9 µM [cytotoxic, single point]"
same,Potency,[4],"inconclusive: 49 µM [cytotoxic, partial curve]"
same,activation,[4],inconclusive: 24.2%
same,Potency,[5],"inconclusive: 61.8 µM [cytotoxic, partial curve, poor fit]"
same,activation,[5],inconclusive: -2.17%
same,Potency,[6],"inconclusive: 43.3 µM [cytotoxic, partial curve]"
same,Potency,[7],"inconclusive: 77 µM [cytotoxic, partial curve, poor fit]"
ClC1=C(Cl)[C@]2(Cl)[C@@H]3[C@@H](Cl)[C@H]4O[C@H]4[C@@H]3C1(Cl)C2(Cl)Cl,Potency,[1],"inconclusive: 54.9 µM [cytotoxic, single point]"
same,Potency,[2],inconclusive: 68.6 µM [cytotoxic]
same,Potency,[8],inconclusive: 61.1 µM [inhibitor]
same,Potency,[4],"inconclusive: 38.9 µM [falling, partial curve]"
same,activation,[5],inconclusive: -9.11%
same,Potency,[9],active: 49 µM
same,Potency,[6],"inconclusive: 77 µM [cytotoxic, partial curve, poor fit]"
same,Potency,[10],active: 68.6 µM
same,Potency,[11],"inconclusive: 68.6 µM [inhibitor, partial curve, poor fit]"
same,Potency,[7],inconclusive: 68.6 µM [cytotoxic]
O=C(CCl)c1ccc(Cl)cc1Cl,Potency,[1],"inconclusive: 13.7 µM [cytotoxic, full curve, poor fit] and active: 10.7 µM"
same,Potency,[2],"inconclusive: 76.6 µM [cytotoxic, single point] and active: 11.9 µM"
same,Potency,[8],"inconclusive: 27.2 µM [inhibitor, partial curve, poor fit]"
same,Potency,[4],inconclusive: 43.4 µM
same,activation,[4],inconclusive: -19.4% [at 35.3 µM]
same,Potency,[10],active: 1.88 µM
same,Potency,[11],"inconclusive: 60.8 µM [inhibitor, partial curve] and inconclusive: 11.9 µM [inhibitor, partial curve, poor fit]"
same,Potency,[7],active: 21.1 µM
same,Potency,[12],"inconclusive: 38.9 µM [inhibitor, partial curve, poor fit]"
CCOC(=O)C(O)(c1ccc(Cl)cc1)c1ccc(Cl)cc1,Potency,[1],"inconclusive: 55.5 µM [cytotoxic, single point] and inconclusive: 54.9 µM [cytotoxic, single point]"
same,Potency,[2],"inconclusive: 69.3 µM [cytotoxic, single point] and inconclusive: 54.5 µM [cytotoxic, partial curve]"
same,Potency,[8],"inconclusive: 55 µM [inhibitor] and inconclusive: 68.6 µM [inhibitor, single point]"
same,Potency,[3],active: 44.1 µM and active: 43.6 µM
same,Potency,[4],"inconclusive: 39.3 µM [cytotoxic, partial curve] and inconclusive: 49 µM [cytotoxic, partial curve]"
same,Potency,[5],"inconclusive: 11.1 µM [inhibitor, full curve] and inconclusive: 21.9 µM [inhibitor, single point]"
same,Potency,[9],active: 31.2 µM and active: 43.6 µM
same,Potency,[6],"inconclusive: 61.8 µM [cytotoxic, partial curve] and inconclusive: 61.1 µM [cytotoxic, partial curve]"
same,Potency,[10],active: 30.9 µM and active: 30.6 µM
same,Potency,[11],"inconclusive: 61.8 µM [inhibitor, partial curve, poor fit] and inconclusive: 68.6 µM [inhibitor]"
same,Potency,[7],"inconclusive: 61.1 µM [cytotoxic, partial curve]"
CCC(C)Br (stereo not drawn),Potency,[1],"inconclusive: 8.24 µM [rising, partial curve, poor fit]"
Clc1ccccc1Cl,Potency,[1],"inconclusive: 0.248 µM [cytotoxic, partial curve, poor fit]"
Clc1ccc(C(c2ccc(Cl)cc2)C(Cl)(Cl)Cl)cc1,Potency,[1],"inconclusive: 13.9 µM [cytotoxic, partial curve] and inconclusive: 61.6 µM [cytotoxic, single point] and inconclusive: 7.56 µM [cytotoxic, full curve]"
same,Potency,[2],inconclusive: 68.6 µM [cytotoxic]
same,Potency,[8],"inconclusive: 54.5 µM [inhibitor] and inconclusive: 1.19 µM [inhibitor, single point]"
same,Potency,[3],"inconclusive: 26.8 µM [cytotoxic, single point]"
same,Potency,[5],"inconclusive: 34.9 µM [cytotoxic, partial curve] and inconclusive: 49 µM [cytotoxic, single point] and inconclusive: 6.74 µM [inhibitor, partial curve, poor fit]"
same,Potency,[9],active: 22 µM and active: 30.9 µM and active: 23.9 µM
same,Potency,[6],"inconclusive: 54.9 µM [cytotoxic, partial curve, poor fit]"
same,Potency,[7],"inconclusive: 69.1 µM [cytotoxic, single point] and inconclusive: 77 µM [cytotoxic, single point]"
CCCCCCCCCCCCCCCCCCn1cc[n+](C)c1,Potency,[1],"inconclusive: 10.9 µM [cytotoxic, full curve]"
same,Potency,[2],active: 60.8 µM
same,Potency,[8],active: 3.05 µM
same,Potency,[5],"inconclusive: 38.7 µM [cytotoxic, partial curve]"
same,Potency,[6],active: 48.3 µM
same,Potency,[10],active: 21.6 µM
same,Potency,[11],"inconclusive: 30.5 µM [inhibitor, partial curve, poor fit]"
same,Potency,[13],active: 24.2 µM
O=S1OCC2C(CO1)C1(Cl)C(Cl)=C(Cl)C2(Cl)C1(Cl)Cl (stereo not drawn),Potency,[1],"active: 55 µM and inconclusive: 61.6 µM [cytotoxic, single point]"
same,Potency,[2],"active: 54.5 µM and inconclusive: 68.5 µM [cytotoxic, single point]"
same,Potency,[8],active: 43.3 µM and active: 61.1 µM
same,Potency,[3],active: 38.9 µM and active: 48.9 µM
same,Potency,[4],"inconclusive: 38.9 µM [falling, partial curve]"
same,Potency,[5],"inconclusive: 55 µM [cytotoxic, single point] and inconclusive: 21.9 µM [inhibitor, partial curve, poor fit]"
same,Potency,[9],"inconclusive: 19.5 µM [cytotoxic, full curve, poor fit]"
same,Potency,[6],"inconclusive: 68.5 µM [cytotoxic, single point]"
same,Potency,[10],active: 48.6 µM and active: 54.4 µM
same,Potency,[11],"inconclusive: 61.2 µM [inhibitor] and inconclusive: 61.1 µM [inhibitor, single point]"
same,Potency,[7],"inconclusive: 68.5 µM [cytotoxic, single point]"
O=Cc1ccccc1,Potency,[1],"inconclusive: 4.48 µM [rising, full curve, poor fit]"
CCC[CH2][Sn]([CH2]CCC)([CH2]CCC)[CH2]CCC,Potency,[1],active: 21.9 µM
same,Potency,[2],active: 10.9 µM
same,Potency,[8],active: 6.11 µM
same,Potency,[3],active: 21.9 µM
same,Potency,[4],"inconclusive: 17.4 µM [falling, full curve]"
same,Potency,[5],active: 0.0871 µM
same,Potency,[6],active: 43.3 µM
same,Potency,[7],active: 27.3 µM
Cc1ccc([N+](=O)[O-])[c]2c1[O][Hg]2,Potency,[1],active: 23.9 µM
same,Potency,[2],active: 1.19 µM
same,Potency,[8],active: 0.376 µM
same,Potency,[3],active: 6.01 µM
same,Potency,[4],"inconclusive: 1.07 µM [falling, full curve]"
same,Potency,[5],"inconclusive: 6.01 µM [cytotoxic, full curve]"
same,Potency,[6],active: 6.68 µM
same,Potency,[10],active: 1.5 µM
same,Potency,[11],"inconclusive: 2.37 µM [inhibitor, full curve]"
same,Potency,[7],active: 5.31 µM
same,Potency,[14],active: 6.68 µM
CC(=O)[O][Pb]([c]1ccccc1)([c]1ccccc1)[c]1ccccc1,Potency,[1],active: 24.5 µM
same,Potency,[2],active: 0.77 µM
same,Potency,[8],active: 0.193 µM
same,Potency,[4],"inconclusive: 4.36 µM [falling, full curve]"
same,Potency,[5],"inconclusive: 7.76 µM [falling, full curve, poor fit]"
same,Potency,[9],active: 2.45 µM
same,Potency,[6],active: 9.69 µM
same,Potency,[11],"inconclusive: 0.611 µM [inhibitor, full curve]"
same,Potency,[7],active: 2.73 µM
same,Potency,[13],active: 5.45 µM
